Self-cleavage data for 167 variants are collected here from the RNAGym collection of RNA variant scans (doi:10.7554/elife.90254).

The source gives no read counts; variants with many changes may rest on few reads.

First the molecules themselves.
B1: LINE1-mini (parent)
chain: GGCAGAGCUCAACACAGCGUGGCAAAGUGGCUGUGGCUAGACUGCC

The variants in this series derive from B1. The experiment in a line: self-cleavage, relative activity (ratio to wild type); higher = more cleavage; in vitro, sequencing; the parent is a self-cleaving ribozyme.
G2A C8A A25G U34G C37A: the self-cleavage worked out at 0.37. G2A C3A G7U G19U G21C G27U U34A: the self-cleavage amounted to 0.39. As to G2A G5A A25G U28G C31U, the self-cleavage amounted to 0.16. As for G2A C23U G27U C31G G35C, the figure is 0.17; as for G2A C3U C10G A16C G33U, 0.03. Turning to G2A G30C C37U, the self-cleavage is 0.22. As for G2A C31G G33U G36U A39C, the self-cleavage is 0.03.

For the variant G2A G27C G33C C45G, the self-cleavage is 0.05. As for G2A G27C C37G, the self-cleavage is 0.16. As for G2A C3A C18U, the figure is 1.92. The value for G2A G19A G29U was 1.41; that for G2A C13A A14U was 0.57. Consider G2A G19A G30U U32G, for which the self-cleavage was found to be 0.29. The value for G2A C8G A41U was 0.09. The value for G2A C3U G22C G35U U38A was 0.71; that for G2A G5U G7U G17A G21A U28G U34G G40A was 0.04; that for G2A C3G G21U was 0.92. Turning to G2A C8G C18U C23G A24G G36A A41U, the self-cleavage stood at 0.01. As for G2A G29C U34C U38G G40U, the figure is 0.14. The value for G2A C10A A14G U20C U34A C45G was 0.05; that for G2A C13A G19U U34A C45G was 0.12; that for G2A G27C G29A C45G was 0.53. In the case of G2A G5A G36C U38A A39C, the self-cleavage was found to be 1.24. In the case of G2A G17C C31U U32A, the self-cleavage was found to be 0.16. The value for G2A G7U A16G A24G was 0.04; that for G2A C10A G19U G30A U38G C42A was 0.02; that for G2A C3U G44U was 2.5.

As to G2A C8G A25U, the self-cleavage was determined as 0.03.

As for G2A C10G G30U U34A, the self-cleavage turned out to be 0.02.

G2A C8A A16C G22U: the self-cleavage was 0.99.

For the variant G2A C3A C8U U9G G27C, the self-cleavage was 0.91. As for G2A G19C C23U, the figure is 0.1. The value for G2A G5U C10A C46A was 0.03. The value for G2A G22C G36U was 0.15. For the variant G2A G5A G19A G21U, the self-cleavage turned out to be 0.47.

Regarding G2A G30A A39U, the self-cleavage was 0.47. The value for G2A G5C C42G was 0.17; that for G2A G5U A25G A41C was 0.08. In the case of G2A C3U A11G, the self-cleavage is 0.04. As for G2A G17C U32A G33A, the self-cleavage turned out to be 0.12. With G2A C8U C18U C31A, the self-cleavage was 0.14.

For G2A G7A A24G G27U C37A C46G, the self-cleavage was found to be 0.38.

As for G2A G22A A39U, the self-cleavage was found to be 0.41.

On to G2A C15A U32C, for which the self-cleavage amounted to 0.09. As for G2A G7A C15U U34A C46A, the figure is 0.06; as for G2A C3U C8A C10G U20A G40A, 0.02; as for G2A C13G G19A A39C, 0.25. In the case of G2A C3A C18U C23U A26U U34C G35C A41C, the self-cleavage is 0.14.

G2A C8A C10G A11U A12U U20G G21C G40U: the self-cleavage worked out at 0.03. As for G2A C10G A11G, the figure is 0.02; as for G2A G21A C45A, 0.63.

For the variant G2A C3G C23U G33A A41G, the self-cleavage amounted to 0.32. The value for G2A C10G C31G was 0.01; that for G2A C8G C23U was 0.09; that for G2A C13U A24U A26G was 0.35. As for G2A G21A G30U A41C, the figure is 0.08; as for G2A C42U G44U, 0.24; as for G2A G19U C46A, 0.83. As for G2A C18G U34C, the self-cleavage was 0.09. Take G2A G5U A11C C13A C42U C46G: the self-cleavage came to 0.02. With G2A C8A G21C G27U U34A C45U C46G, the self-cleavage is 0.11.

On to G2A G19A A26C, for which the self-cleavage came to 0.42. Turning to G2A G27C U34A G44A, the self-cleavage is 0.12. The value for G2A C8G G30U G36U was 0.29; that for G2A G17U C18U G19C G30U was 0.63. For the variant G2A C3G C8A U32C U38G, the self-cleavage was 0.58. Turning to G2A C8G A26G G40A, the self-cleavage was found to be 0.01. G2A C10U A12G C31G: the self-cleavage is 0.13. With G2A C10G U43G, the self-cleavage came to 0.01. As for G2A G5A A11G, the self-cleavage stood at 0.11. The value for G2A C15A C23G G35C G44C was 0. With G2A G5C A6C A11C G36A G44C, the self-cleavage was found to be 0.01.

With G2A C18G C23G U34C, the self-cleavage stood at 0.07. As for G2A C15U C45U, the figure is 0.64. As for G2A C3G A4C U38C, the figure is 0.27; as for G2A C3G C18A U32C G44U, 0.07; as for G2A C23A C31A G35U A41C, 0.11.

G2A C23U A25C U43A: the self-cleavage is 0.15. For the variant G2A C23A G29A C37U C46A, the self-cleavage was 0.04. As for G2A C8U A12G A16C, the figure is 0.08. As for G2A C18A G22A C23G A24G G35C, the figure is 0.05; as for G2A C3A U34G, 0.26; as for G2A C8U C13U A14C G35U, 0.46. The value for G2A C15A U38A was 0.17; that for G2A C15A G40U was 0.05. For the variant G2A C15G G21A U28G G33U U38G, the self-cleavage came out at 0. The value for G2A C3A C10G G22A was 0.1; that for G2A C8G U9A G44U was 0.06. As for G2A G5U C46G, the figure is 0.07. Take G2A G5U C10U U43A: the self-cleavage is 0.12. In the case of G2A G5U G19A A26C G36C, the self-cleavage worked out at 0.06. The value for G2A C13U C18A G21A C42A was 0.06. As for G2A G7C C13U U43A, the figure is 0.56; as for G2A G5U G7C C18U C31A U43G, 0.01. G2A G17C G19C G33C: the self-cleavage was 0.03. As for G2A C18U U43A, the figure is 0.13.

Take G2A G17C G40U: the self-cleavage is 0.16. As to G2A C8G G22A U34A, the self-cleavage stood at 0.13. For the variant G2A C15G G29U G33C G40A, the self-cleavage amounted to 0.01. G2A C13A C18U C23G G36A C42U: the self-cleavage came to 0.17.

Consider G2A C3U G7A G21U, for which the self-cleavage is 0.44. The value for G2A C8A C18A G21A was 0.73. The value for G2A G29U G40U was 0.53; that for G2A G7A C45U was 0.91.

On to G2A C13G G30A G33U U34C G35U, for which the self-cleavage is 0.19. Turning to G2A C8A C10A G21C G36A G44C, the self-cleavage amounted to 0.05. The value for G2A C8A C10A A11G G17C G22U was 0.03; that for G2A C10U G30U U38A was 0.14. The value for G2A C8A U34C was 0.54. Consider G2A G21U G35U G40C, for which the self-cleavage worked out at 0.13.

Regarding G2A C10U A24U G36U, the self-cleavage worked out at 0.06. G2A G17U G36U: the self-cleavage is 0.05. The value for G2A C13G G17C G19U G44U was 0.05; that for G2A C10A C45G was 0.05; that for G2A C15A A39C was 0.14. On to G2A G27A C31A, for which the self-cleavage amounted to 0.35. On to G2A G19A C23U G30A G35A, for which the self-cleavage came out at 1.04. As to G2A C37U U38C, the self-cleavage came to 0.21. With G2A C18U C46A, the self-cleavage came to 0.34. As for G2A G5U C10A C13U U32C, the figure is 0.03. The value for G2A G19A A26U G29C U34G was 0.08. As for G2A C13U G21U, the figure is 1.46; as for G2A G19A U20A C23U U38C, 2.54. Turning to G2A G5U G33A, the self-cleavage was 0.03.

Turning to G2A C8U A14G G30C G36C, the self-cleavage is 0.13. For G2A G5U A25G G29U A41G, the self-cleavage came out at 0.24. As for G2A G30A A41G, the figure is 0.87; as for G2A G22C G44A, 0.17; as for G2A C3U G5C U9A G30U, 0.11.

With G2A C3A G17U G27A U32G U34C U43A, the self-cleavage stood at 0.82. As for G2A C15G G33A, the figure is 0.05. The value for G2A G7A A16G C46A was 0.42. The value for G2A C13A C23A was 0.15.

As to G2A G17A C45U, the self-cleavage was 1.15. For the variant G2A G7C G21C, the self-cleavage is 0.27.

Take G2A C15U A24U G30A U38G: the self-cleavage was found to be 0.02.

Regarding G2A G21A A39U C46A, the self-cleavage worked out at 1.34. Consider G2A G21U G36C C42G, for which the self-cleavage turned out to be 0.16. Take G2A G7A C8U A24G: the self-cleavage is 0.86. As for G2A C18U A39G, the figure is 0.11; as for G2A G7C C15G U38G, 0.12; as for G2A C13U G36U, 0.09. G2A G5U C15A G29U U34G C45G: the self-cleavage was determined as 0.1. As for G2A G5U G7U C13G C31G, the figure is 0.17; as for G2A G19A G30C G36U, 1.06.

Regarding G2A G5U G7A U9G U34A C46U, the self-cleavage turned out to be 0.13. Regarding G2A C3U G19A C37U A39C C45A, the self-cleavage was found to be 0.68. As for G2A C13A G36A, the figure is 2.51. With G2A G5C C15U A26G G40U, the self-cleavage was determined as 0.09.

Turning to G2A G5A C13A C15A A26C, the self-cleavage was 0.59.

For G2A C18U G36A, the self-cleavage was found to be 0.68. As for G2A C18G G22C C31U G44A, the figure is 0.08. As for G2A C10A C31A, the figure is 0.05; as for G2A C10G G33U C46G, 0.04. For the variant G2A G17C U20G A41C, the self-cleavage amounted to 0.02.

As for G2A C13A C18A G21A A24U, the self-cleavage turned out to be 0.05. As for G2A C10U G22A, the self-cleavage was found to be 0.21. The value for G2A C8A G30C G36U was 1.84; that for G2A C3A C8A A16C C37A A39G was 2.53; that for G2A G19C G22A A26G A39G was 0.06. As for G2A C18U G33U, the figure is 0.1.

In the case of G2A C8G G30U C31G C45A, the self-cleavage is 0.03.

Take G2A C13U U28G G30U A41G: the self-cleavage is 0.09. As for G2A G7C A25U, the figure is 0.17; as for G2A C13G C31A, 0.26; as for G2A G5A U38A C46U, 0.33. As for G2A G30A U34A, the figure is 0.17.
